Source: PubChem BioAssay AID1458 (National Center for Advancing Translational Sciences (NCATS), 2008)
Screen size: about 210,000 compounds; about 5,900 (2.8%) were called active. Inconclusive results, whose numbers are uncertain, are shown with a selection of clear calls. Calls follow the shape of the dose curve; as a rule, active = well fitted activation curve with a large enough effect; inconclusive = small, poorly fitted or top-dose-only effect; inactive = no such curve, though single readings can be large or run the other way. Where the call is inconclusive, the potency comes from a doubtful curve fit.

Experiment: qHTS Assay for Enhancers of SMN2 Splice Variant Expression; also: nearly all actives have a fitted effect of over 55% in size; as to activity change, positive = activation: % of control where 0% means no effect
Conditions: HEK293 SMN2-luciferase splicing reporter, luminescence, 30-36 h; activity change, positive = activation: at 46.1 µM (top of the series)
Summary of the method: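 HEK293 cells carry an SMN2 […]–luciferase reporter in which exon 7 inclusion puts luciferase in frame. Cells were plated 10-12 h before compound addition, then incubated 30-36 h at 37C. ONE-Glo luminescence was read; sodium butyrate at 4.5 mM final served as control.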
Potency is read from the fitted curve at half-maximal effect; tags tell the direction and shape of the fitted curve.

Structure (SMILES) | activity change, positive = activation | Potency
O=C(c1ccco1)n1nc(-c2ccco2)nc1SCc1ccccc1 | inactive: 7.87% | –
Cc1ccc(NC(=O)C2CCCN(C(=O)c3cnn(-c4ccccc4)c3-n3cccc3)C2)cc1 (configuration not stated) | inactive: 14.3% | –
CCn1nc(C(=O)OCC(=O)c2cc(C)n(Cc3cccs3)c2C)c2ccccc2c1=O | – | inconclusive: 0.398 µM [activator, full curve]
O=C(Nc1noc2ccccc12)c1cccc(Cl)c1Cl | – | inconclusive: 3.16 µM [activator, partial curve]
CCn1nnc(NC(=O)COc2ccc(C3CCCCC3)cc2)n1 | – | inconclusive: 0.355 µM [activator, full curve]
Nc1ncnc2c1nc(SCCO)n2Cc1ccccc1 | inactive: -26.4% | –
COc1ccc(OC)c(-c2c(C#N)c(N)nc3c2c(=O)nc2sccn23)c1 | – | inconclusive: 35.5 µM [activator, single point]
O=C(NCc1ccco1)c1ccccc1F | – | inconclusive: 6.31 µM [activator, full curve, poor fit]
CCCCC(C=O)CC (configuration not stated) | – | inconclusive: 12.6 µM [activator, single point]
O=C(/C=C/c1ccco1)N1CCN(c2ncccn2)CC1 | – | inconclusive: 15.8 µM [activator, single point]
COC(=O)N1CC=CC1(C)C(=O)NCc1ccc(C)o1 (configuration not stated) | inactive: 13.9% | –
CC1(C)OC(=O)C(=CNCCc2ccc(O)cc2)C(=O)O1 | – | inconclusive: 1 µM [activator, partial curve, poor fit]
O=C(Cn1cc(C(F)(F)F)ccc1=O)N/N=C/c1ccc(Cl)cc1Cl | – | inconclusive: 6.31 µM [activator, single point]
O=C(Nc1ccccc1)C(=O)Nc1ccccn1 | – | active: 4.47 µM
COc1cccc(C(=O)COC(=O)c2cc(-c3cccs3)nc3ccccc23)c1 | inactive: -0.316% | –
CCOc1ccc(NC(=S)NCCCn2ccnc2)cc1 | – | inconclusive: 0.708 µM [activator, full curve, poor fit]
Cc1nc2ccccc2c(=O)n1/N=C/c1cccs1 | inactive: 7.87% | –
O=C(Nc1cccc(-c2cn3cccnc3n2)c1)c1ccco1 | inactive: 3.63% | –
COCCNC(=O)C(c1ccc(C)cc1)N(C(=O)CCC(=O)Nc1ccccn1)C1CCCC1 (configuration not stated) | – | inconclusive: 1 µM [activator, full curve, poor fit]
COc1ccc(-c2cc(C(F)(F)F)nc(SCC(=O)Nc3ccc(O)cc3)n2)cc1OC | inactive: -6.56% | –
CCC(=O)N1CCN(c2ccc(NC(=O)c3ccc([N+](=O)[O-])o3)cc2)CC1 | inactive: 8.23% | –
S=C(Nc1ccc2cn[nH]c2c1)Nc1ccccc1Cl | – | inconclusive: 11.2 µM [activator, partial curve]
